# In all, about 33,000 sequences were measured (“E-score (-0.5 to 0.5)”: median about -0.017, highest 2% from about 0.3 on). Some of the results follow.
# Target: T1, Sut1 (UniProt P53032)
# T1 sequence: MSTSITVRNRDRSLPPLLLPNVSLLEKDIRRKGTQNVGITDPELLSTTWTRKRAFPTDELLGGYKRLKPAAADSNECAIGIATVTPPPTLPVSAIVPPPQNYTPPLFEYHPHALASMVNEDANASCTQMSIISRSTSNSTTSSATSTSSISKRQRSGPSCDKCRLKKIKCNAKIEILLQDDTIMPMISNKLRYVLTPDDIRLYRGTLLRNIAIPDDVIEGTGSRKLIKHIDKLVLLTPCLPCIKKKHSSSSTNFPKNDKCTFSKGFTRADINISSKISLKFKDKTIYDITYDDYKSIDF
# Test: PBM E-score (8-mer binding enrichment) (E-score (-0.5 to 0.5)); higher = stronger / more preferred TF binding; most listed sequences are background and not binding sites
# Conditions: protein concentration: 200 nM; construct: GST-full length
# Procedure: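 Universal 'all 10-mer' protein binding microarrays (Agilent AMADID 015681) probed with GST-tagged S. cerevisiae TFs (full-length or DBD) made by in vitro transcription/translation (PURExpress), about 100-200 nM. Bound TF was detected with fluorescent anti-GST. Each ungapped 8-mer (which stands for itself and its reverse complement) is scored by the PBM enrichment score (E-score), a modified Wilcoxon-Mann-Whitney statistic from -0.5 to +0.5, computed with the Universal PBM Analysis Suite. Scale: above 0.35 generally sequence-specific binding.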
row,Sequence,PBM E-score
1,CGCGTCTC,-0.064
2,TCAGGACA,-0.0448
3,GACCGTTA,0.00635
4,CGCATACA,0.0452
5,TATACAGA,0.154
6,GCGGTAGA,-0.17
7,ACTCTTAT,0.249
8,GGCGTTCA,0.0231
9,ACCTAAAA,0.0939
10,ACCCACTG,-0.198
11,CAGTACCC,-0.117
12,CCAGTAGG,-0.302
13,ACGAATAG,0.0991
14,CTCCTAGC,-0.221
15,TATTACCA,0.0862
16,ACTCTCCG,0.27
17,ACACTACA,0.0792
18,CGTGACGA,-0.0824
19,TCCCGCAA,0.0786
20,GATCACGC,0.193
21,GGAGTTGA,0.29
22,ACGGAGGC,-0.0143
23,AAGCGCAT,-0.118
24,CGAGTCGC,-0.188
25,GACAACAC,-0.0824

row,Sequence,PBM E-score
1,ACCAATTA,0.234
2,TATAGTAA,0.271
3,CCCCCCTC,-0.362
4,TAGTACGA,0.135
5,ATGCGCGG,-0.0955
6,AAACTGCG,-0.0974
7,GTTTGTTA,0.122
8,ATGGCAGA,-0.0417
9,ATTGATCG,0.0773
10,CAACGTGA,0.0149
11,CCGCGCCG,-0.00447
12,CCCGAGTC,0.00022
13,ATGATGCG,-0.0816
14,TACGTTCA,0.0513
15,CACACCAC,-0.032
16,AATCCTTC,-0.0568
17,ACACCAAC,-0.0314
18,GGTCCGAA,0.437
19,ACGCTACA,0.11
20,GCGGAACC,-0.0529
21,TACATATA,0.261
22,CCATCTTC,0.0635
23,TCACAGGA,-0.0247
24,TGTTGTAA,0.156
25,AGACTAGA,-0.184

row,Sequence,PBM E-score
1,CCTTGCCC,0.0934
2,AAAACTTA,0.274
3,AGCCAAGG,-0.188
4,ATTTACAA,0.181
5,TCCGTCAA,0.286
6,ATAACTTG,0.043
7,AATAACCG,0.131
8,AATTTCAG,-0.00523
9,ACGGCCCC,-0.423
10,ACAGCAAG,0.0276
11,GAAGCGGC,-0.213
12,AACTAGCC,-0.0509
13,GACGTGAA,-0.149
14,AGGGGGGC,-0.332
15,CTAGTCGC,-0.144
16,CTAGACAA,0.0963
17,CAGGAACA,0.0351
18,CCCGATAA,-0.131
19,TCTGTGAA,0.13
20,TATATTCA,0.281
21,GTATTGCA,-0.031
22,CCAAGTGG,-0.155
23,CGCTCGGA,0.29
24,TAGTACCA,0.0484
25,CAGTTATA,0.119

row,Sequence,PBM E-score
1,ACCTTCCT,-0.118
2,CCGTAGAC,0.084
3,AACCCCTC,-0.198
4,CAATAACG,0.0501
5,ACGTGTTC,-0.037
6,TACGCTAA,-0.00118
7,TATATGGA,0.114
8,CAAAAAAA,0.267
9,CATCAGCG,-0.175
10,AGTTCCAC,0.0638
11,CGGCGCGC,-0.0694
12,ATCCAAAC,0.116
13,AGATTCAC,-0.0436
14,AACCAGCC,-0.0257
15,CTTATTTA,0.101
16,TAGGCCGA,-0.0748
17,GCACCGGA,0.338
18,CCAATACC,0.0874
19,AAAAGGTC,-0.0965
20,CAACATGC,-0.0131
21,CTGTTTTA,0.091
22,CGAGTGGA,-0.109
23,ACCTAGAT,-0.183
24,CGTCCGTA,0.0823
25,CAACAATC,0.113

row,Sequence,PBM E-score
1,CTTGTCCA,-0.139
2,ATAGCGAA,0.157
3,GTCACAGA,-0.134
4,CAACTCGC,-0.0138
5,CCCTCTAA,-0.262
6,CACGTACG,-0.207
7,AGACGGTC,-0.103
8,TGAGAGAA,0.138
9,AACGGGAC,-0.0788
10,TGTTCTAA,0.119
11,CACCCCGA,0.134
12,CGCGCGCA,-0.0131
13,ATCCTCGC,-0.216
14,GCACGTCC,-0.142
15,ACCCGGGC,-0.0147
16,ATAAGCAG,0.0365
17,CCTAGAGG,-0.323
18,AAGTTACT,0.0828
19,GTTGACCA,-0.067
20,ACTATACC,0.102
21,CGTACGGA,0.228
22,TCAATACA,0.141
23,ATAACACC,0.188
24,GTGTGCTA,0.021
25,AGCGAGTG,-0.106

row,Sequence,PBM E-score
1,AATGAAAG,0.194
2,AAGAGTCA,-0.0453
3,AGCCGAGC,-0.0263
4,ATATCTCG,0.118
5,CATGCGTC,-0.0635
6,CGGTATGA,-0.0057
7,GAGCGTCA,-0.161
8,GAGCGAAC,-0.0893
9,GGTGTCTA,0.0163
10,GGGTGAAA,0.0413
11,AGATTAAG,0.173
12,AGGGTAGC,-0.271
13,AGTCGACG,0.157
14,AGAGCACC,-0.249
15,TGGCGCAA,-0.118
16,GCCGTGAA,0.0139
17,ATTAACTC,0.261
18,ACGTGATA,0.0696
19,AAAAAAGA,0.176
20,CTACTCGA,0.0576
21,AATTAGCA,0.177
22,TCACCGAA,0.155
23,ACATAAAC,0.138
24,AGCGGACA,0.107
25,ATTAACGC,-0.082

row,Sequence,PBM E-score
1,TCGCCAGA,-0.127
2,AATAAACC,0.224
3,ACCGAAAG,0.0623
4,CATACTCG,-0.056
5,AGACAGCA,0.0488
6,TACTACAA,0.276
7,AAGTGTTA,0.0732
8,ATGGGCCA,0.0249
9,ACACGAGA,-0.249
10,CAGTCCAA,-0.0383
11,AAATGGTT,0.0504
12,AATATAAC,0.294
13,CGCCCGAC,-0.147
14,ACGAGAAG,0.0931
15,GTAGGATA,0.0282
16,CTAGTACC,-0.122
17,TAAGCATA,0.122
18,ATGAAGTC,0.107
19,AATCCACG,0.157
20,CTAACGGC,0.0477
21,CGACGGGC,-0.197
22,CATTCGCG,0.071

# Source: the supplement of paper PMC3334620
